Assays:
[1] = biological target: T1, SPARC (Homo sapiens, UniProt P09486); test: ELISA verification of SPARC binding activity of Fab regions; details: purified Fab
T1 sequence (P09486 18-303): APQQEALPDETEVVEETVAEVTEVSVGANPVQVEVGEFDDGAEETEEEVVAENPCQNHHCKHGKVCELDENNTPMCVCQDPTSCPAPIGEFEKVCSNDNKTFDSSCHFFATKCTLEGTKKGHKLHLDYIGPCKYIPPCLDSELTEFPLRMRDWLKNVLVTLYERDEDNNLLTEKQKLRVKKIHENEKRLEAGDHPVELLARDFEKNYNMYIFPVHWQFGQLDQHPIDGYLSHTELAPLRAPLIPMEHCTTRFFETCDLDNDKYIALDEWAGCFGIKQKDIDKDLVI
Description: A pASK84 expression vector (FIG. 1) was used to express the Fab regions of the resulting antibodies, designated Imm1 through Imm12. The Fab regions were targeted to the periplasm where they were collected and subsequently purified via activity chromatography on a protein A sepharose column. Identity was verified by Western blot and SPARC binding activity was verified by ELISA.
Imm13 and Imm14 are fully human anti-human SPARC antibodies which were generated using a human phage display library. SPARC was panned against the commercial human Fab phage display library HuFabL® (Creative Biolabs, Shirley, N.Y.). SPARC binding activity was verified by ELISA for these two Fab molecules.

[2] = biological target: T2, recombinant human SPARC (Bio1-SPARC) (Homo sapiens, UniProt P09486); test: ELISA binding to recombinant human SPARC (Bio1-SPARC); details: protein ELISA (FIG. 10)
T2 sequence (P09486 18-303): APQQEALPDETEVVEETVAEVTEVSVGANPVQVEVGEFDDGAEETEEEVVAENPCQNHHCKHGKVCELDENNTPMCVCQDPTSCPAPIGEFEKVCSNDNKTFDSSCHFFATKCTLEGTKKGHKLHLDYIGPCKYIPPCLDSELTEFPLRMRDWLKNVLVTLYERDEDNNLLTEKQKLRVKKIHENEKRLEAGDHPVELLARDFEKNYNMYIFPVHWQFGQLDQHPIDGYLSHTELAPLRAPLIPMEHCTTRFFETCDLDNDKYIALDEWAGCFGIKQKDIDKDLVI
Procedure: (§1) The ability of Imm1 through Imm12 (the mouse-derived anti-human SPARC antibodies) to bind recombinant human SPARC (Bio 1-SPARC) was characterized by multiple ELISA assays performed at various stages of purification. FIG. 7 presents the results of an ELISA assay performed on a serial dilution (1:1, 1:10, and 1:100) of antibody supernatants prior to purification. […] Another ELISA assay was performed with the purified antibodies (FIG. 8) at concentrations of 0.04 μg/mL, 0.2 μg/mL, 1 μg/mL, and 5 μg/mL. […] An additional ELISA was performed to compare the binding of the mouse derived Immseries antibodies to two different varieties of SPARC: Bio1-SPARC, and human platelet SPARC (HTI-SPARC) (FIG. 9).
(§2) ELISA assays were also used to characterize the SPARC binding of the fully human SPARC binding antibodies, Imm13 and Imm14. […] Surface plasmon resonance binding assays, performed on the Biacore 3000® (GE/Biacore International AB, Uppsala, Sweden), tested the binding of Fab 16 to both varieties of SPARC immobilized on a sensorchip (FIGS. 11 and 12).

[3] = biological target: T3, HTI SPARC (Homo sapiens, UniProt P09486); test: Surface plasmon resonance (Biacore 3000), immobilized HTI SPARC; format: binding; details: HTI SPARC on sensorchip
T3 construct: human platelet SPARC (HTI-SPARC); tissue Hematologic Technologies; host or cells: human platelets
T3 sequence (P09486 18-303): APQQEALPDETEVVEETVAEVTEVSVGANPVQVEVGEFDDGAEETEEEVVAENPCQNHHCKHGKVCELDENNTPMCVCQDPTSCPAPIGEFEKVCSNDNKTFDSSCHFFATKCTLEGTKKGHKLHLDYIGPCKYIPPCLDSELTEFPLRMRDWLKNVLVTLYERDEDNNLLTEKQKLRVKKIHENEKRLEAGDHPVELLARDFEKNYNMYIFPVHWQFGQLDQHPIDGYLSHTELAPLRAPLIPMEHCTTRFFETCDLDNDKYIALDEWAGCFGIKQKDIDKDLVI
Description: as §2

[4] = biological target: T4, human platelet SPARC (HTI-SPARC) (Homo sapiens, UniProt P09486); test: ELISA binding to human platelet SPARC (HTI-SPARC); details: protein ELISA (FIG. 10)
T4 construct: human platelet SPARC (HTI-SPARC); tissue Hematologic Technologies; host or cells: human platelets
T4 sequence (P09486 18-303): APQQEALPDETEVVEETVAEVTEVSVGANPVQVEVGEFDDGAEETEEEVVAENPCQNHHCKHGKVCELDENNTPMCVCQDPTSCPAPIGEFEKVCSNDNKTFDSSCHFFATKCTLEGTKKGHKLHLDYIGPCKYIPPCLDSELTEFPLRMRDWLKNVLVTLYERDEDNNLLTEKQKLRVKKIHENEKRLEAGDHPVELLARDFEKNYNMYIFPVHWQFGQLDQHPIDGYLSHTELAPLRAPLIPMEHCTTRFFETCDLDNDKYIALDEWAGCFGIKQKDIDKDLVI
Procedure: as §1, §2

[5] = biological target: T5, Bio1-SPARC (Homo sapiens, UniProt P09486); test: Surface plasmon resonance (Biacore 3000), immobilized Bio1-SPARC; format: binding; details: Bio1-SPARC on sensorchip
T5 sequence (P09486 18-303): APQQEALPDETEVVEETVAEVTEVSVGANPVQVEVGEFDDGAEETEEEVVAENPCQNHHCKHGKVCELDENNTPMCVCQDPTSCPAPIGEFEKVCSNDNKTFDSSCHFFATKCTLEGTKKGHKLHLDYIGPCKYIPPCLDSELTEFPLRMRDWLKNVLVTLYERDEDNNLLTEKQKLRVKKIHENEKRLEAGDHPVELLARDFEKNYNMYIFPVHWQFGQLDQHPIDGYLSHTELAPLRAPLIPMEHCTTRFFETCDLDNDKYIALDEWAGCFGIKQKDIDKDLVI
Description: as §2

[6] = system: LL/2 (Lewis Lung Carcinoma); test: LL/2 Lewis Lung Carcinoma survival / lung metastasis model; format: in vivo, mice; details: 200 μg/mouse i.p. twice weekly for 4 weeks, versus mouse control IgG
Procedure: C57BL male mice (approx. 6 weeks old) were weighed, and then injected intravenously with approximately 1×10^6 cells (approximately 0.1 mL) of LL/2 (Lewis Lung Carcinoma) with 25-gauge needle. A minimum of 10 animals was used per group. Twice weekly for 4 weeks, each animal in all groups received 200 μg/mouse of a test antibody or mouse IgG. These test articles/antibodies were dosed via intra-abdominal injection into the peritoneal cavity with a 25-27 gauge needle. The first dose was administered within 30 minutes of tumor cell injection.
Animals were weighed prior to tumor cell injection, and twice weekly prior to dosing. All animals were examined twice daily for mortality/morbidity. At the end of the experiment, the mice were killed, and primary tumors and lungs were removed, fixed, and embedded. Euthanized animals and any animals found dead prior to rigor mortis were necropsied. Plasma and lungs from all animals were collected and weighed at termination. Lungs were infused with and then immersed in 10% Neutral buffered formalin. Tissues were stored for additional gross and histopathologic analysis.
Animals were administered either mHTI, Imm12, or Imm14. A negative control group was administered mIgG. The antibodies were formulated in PBS and were administered in at dose of 200 μg/mouse, twice weekly, for four weeks. The survival of the animals was then recorded over […].

[7] = system: recombinant human SPARC protein; test: Tube Formation Assay (AngioKit) with SPARC and SPARC binding antibodies; format: cell-based; details: 300 μg/mL antibody with 10 μg/mL recombinant human SPARC
Procedure: This assay was performed using the TCS Cellworks human AngioKit model kit (TCS-ZHA-1000, TCS Cell Works, Buckingham, UK) as described in Example 10 above. The media contained 10 μg/mL recombinant human SPARC protein. The media also contained 300 μg/mL of one of the above prepared mouse SPARC binding monoclonal antibodies (Imm12, Imm14, mHTI), or a control (mouse IgG).
To examine the effect of SPARC on tubule formation, and interference with that function by SPARC binding monoclonal antibodies, the number of tubules formed and their length was evaluated by light microscopy.

[8] = biological target: T6, mouse SPARC (Mus musculus, UniProt P07214); test: ELISA binding to murine SPARC (FIG. 16); details: ELISA (FIG. 16)
T6 sequence (P07214 18-302): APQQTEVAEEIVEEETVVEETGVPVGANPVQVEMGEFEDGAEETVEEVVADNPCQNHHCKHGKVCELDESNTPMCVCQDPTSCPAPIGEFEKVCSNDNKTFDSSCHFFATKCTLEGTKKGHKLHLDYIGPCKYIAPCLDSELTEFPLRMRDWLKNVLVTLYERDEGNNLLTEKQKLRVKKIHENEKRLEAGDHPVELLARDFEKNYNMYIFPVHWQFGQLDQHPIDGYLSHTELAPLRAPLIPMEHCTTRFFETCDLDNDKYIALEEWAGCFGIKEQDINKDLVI

[9] = biological target: T7, denatured human SPARC (Homo sapiens, UniProt P09486); test: Western blot against denatured SPARC; format: binding; details: SDS polyacrylamide gel
T7 sequence (P09486 18-303): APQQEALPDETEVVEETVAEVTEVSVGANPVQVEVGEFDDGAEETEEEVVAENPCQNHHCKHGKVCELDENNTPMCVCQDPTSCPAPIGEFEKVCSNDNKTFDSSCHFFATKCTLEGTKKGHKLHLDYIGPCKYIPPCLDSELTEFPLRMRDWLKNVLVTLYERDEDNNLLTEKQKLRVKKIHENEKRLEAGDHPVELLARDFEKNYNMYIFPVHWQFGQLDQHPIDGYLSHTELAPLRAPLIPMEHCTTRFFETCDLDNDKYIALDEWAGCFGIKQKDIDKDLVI
Description: Western blotting was used to determine whether the Imm series antibodies bind to linear or conformational epitopes. In this analysis, SPARC protein was run on a polyacrylamide gel in the presence of SDS. Accordingly, the SPARC protein on the gel was in its denatured form. The Imm series antibodies were used as primary antibodies and were then probed with goat anti-mouse IgG. BSA was used as a negative control.

[10] = system: HT29 colon xenografts; test: Tumor localization of Alexa 680 labeled antibodies in HT29 xenografts; format: in vivo, mice; details: 200 ug/mouse i.v. day 1, Alexa 680 label, followed 36 days
Procedure: Nude mice implanted with subcutaneous HT29 colon xenografts were treated with Imm series antibodies labeled with labeled with Alexa 680 fluorescent dye at dose of 200 ug/mouse. The labeled Imm antibodies were formulated in saline and administered intravenously on day 1. The fluorescent signal was followed in these mice over the course of 36 days.

[11] = biological target: T1, SPARC; test: ELISA binding to human SPARC (FIG. 16); details: ELISA (FIG. 16)
[12] = biological target: T1, SPARC; test: ELISA comparing Imm11, Imm12, Imm13, Imm14 binding to human SPARC; details: ELISA (FIG. 13)
Procedure: An ELISA assay was also performed to directly compare the SPARC binding capabilities of selected mouse-derived anti human SPARC antibodies, Imm11 and Imm12, to the fully human Imm13 and Imm14, the results of which are presented in FIG. 13.

B1: Fab6: human SPARC binding Fab from phage display library HuFabL, SEQ ID NO 15 (protein)
chain: QVQLVQSGGGLVQPGGSLRLSCAASGFTVSSNYMSWVRQAPGKGLEWVSVIYSGGSTYYADSVKGRFTISRDNSKNTLYLQMNSLRAEDTAVYYCARGIAAAGLDYWGQGTLVTVSPASTKGPSVFPLAPSSKSTSGGTAALGCLVKDYFPEPVTVSWNSGALTSGVHTFPAVLQSSGLYSLSSVVTVPSSSLGTQTYVCNVNHKPSNTKVDKKVEPKSCDKTSELVLTQPPSVSAAPGQKVTISCSGSSSNIGNNYVYWYQQLPGTAPKLLIYRNNQRPSGVPDRFSGSKSGTSASLAISGLRSEDEADYYCAAWDDSLSGWVFGGGTKLTVLGQPKAAPSVTLFPPSSEELQANKATLVCLISDFYPGAVTVAWKADGSPVKAGVETTTPSKQSNNKYAASSYLSLTPEQWKSHRSYSCQVTHEGSTVEKTVAPTECS
[1]
  SPARC binding activity (ELISA): verified

B2: Fab16: human SPARC binding Fab from phage display library, SEQ ID NO 16; the Fab region of Imm14 (protein)
chain: QVQLVQSGGGLIQPGGSLRLSCAASGFTVSSNYMSWVRQAPGKGLEWVSVIYSGGSTYYADSVKGRFTISRDNSKNTLYLQMNSLRAEDTAVYYCARGIAAAGLDYWGQGTLVTVSSASTKGPSVFPLAPSSKSTSGGTAALGCLVKDYFPEPVTVSWNSGALTSGVHTFPAVLQSSGLYSLSSVVTVPSSSLGTQTYICNVNHKPSNTKVDKKVEPKSCDKTSELVLTQPPSVSGTPGQRVTISCSGSSSNIGSNYVYWYQQLPGTAPKLLIYRNNQRPSGVPDRFSGSKSGTSASLAISGLRSEDEADYYCAAWDDSLSGWVFGGGTKLTVLGQPKAAPSVTLFPPSSEELQANKATLVCLISDFYPGAVTVAWKADGSPVKAGVETTTPSKQSNNKYAASSYLSLTPEQWKSHRSYSCQVTHEGSTVEKTVAPTECS
[2]
  Kd: 7 nM
[3]
  Kd: 76.2 nM
[1]
  SPARC binding activity (ELISA): verified
[4]
  Kd: 11 nM
[5]
  Kd: 132 nM

B3: Imm14: fully human anti-human SPARC antibody created from Fab16, IgG1 (κ) (antibody, V domains shown)
VH: QVQLVQSGGGLIQPGGSLRLSCAASGFTVSSNYMSWVRQAPGKGLEWVSVIYSGGSTYYADSVKGRFTISRDNSKNTLYLQMNSLRAEDTAVYYCARGIAAAGLDYWGQGTLVTVSS
VL: ELVLTQPPSVSGTPGQRVTISCSGSSSNIGSNYVYWYQQLPGTAPKLLIYRNNQRPSGVPDRFSGSKSGTSASLAISGLRSEDEADYYCAAWDDSLSGWVFGGGTKLTVL
[6]
  inhibition of lung LL/2 metastasis: did not inhibit lung LL/2 metastasis
[7]
  effect on SPARC-induced tubule formation: only very slight formation of very short tubules
[8]
  binding to mouse SPARC: not mouse SPARC
[9]
  binding to denatured SPARC: bind denatured SPARC
[10]
  localization at the tumor site: do not localize at the tumor site
[11]
  binding to human SPARC: specifically bind to human SPARC
[12]
  affinity for SPARC relative to mouse derived Imm11 and Imm12: lower affinity

Source: patent US20120052007A1, “PERIPHERAL BLOOD SPARC BINDING ANTIBODIES AND USES THEREOF” (ABRAXIS BIOSCIENCE, LLC, priority 2010, published 2012)
